# The supplement of paper PMC12645437, “Orthogonal IMiD-Degron Pairs Induce Selective Protein Degradation in Cells” (ACS Chemical Biology, 2025)
# This is one part of the list.
# Molecular target: no compound (DMSO)
# Experiment: log2 fold change of degron read counts, EGFP-low vs EGFP+ sorted cells; higher = lower degron-EGFP level without compound (poor expression or instability)
# Conditions: compound: DMSO control; 18 h
# 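Further: jurkat cells carrying a lentiviral library of mutant zinc finger degrons fused to EGFP plus mCherry, mCherry+ cells FACS sorted, degron abundance counted by next-generation sequencing.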
row,Sequence,log2 fold change of degron read counts
1,FMCPICGHFFTQKGNLLRHIKL,0.756
2,FYCDICGAWFTQKGNLLRHIKL,0.335
3,LFCEICGFGCTQKGNLLRHIKL,0.551
4,FDCEICGRAFTQKGNLLRHIKL,-0.872
5,FDCEQCGARFTQKGNLLRHIKL,-1.61
6,FYCPQCGAWFTQKGNLLRHIKL,0.958
7,FDCNQCGAIFTQKGNLLRHIKL,-0.124
8,FHCEICGADFTQKGNLLRHIKL,-2.01
9,FECPQCGAAFTQKGNLLRHIKL,-1.84
10,FDCEICGASFTQKGNLLRHIKL,-2.09
11,FFCDQCGASFTQKGNLLRHIKL,-1.95
12,FICPICGRNFTQKGNLLRHIKL,0.0153
13,FICNQCGAEFTQKGNLLRHIKL,-1.14
14,FVCNICGAHFTQKGNLLRHIKL,-0.188
15,FLCEQCGATFTQKGNLLRHIKL,-1.51
16,FACPICGAHFTQKGNLLRHIKL,-0.056
17,FECEQCGAHFTQKGNLLRHIKL,-2.01
18,FACNQCGASFTQKGNLLRHIKL,-1.35
19,FYCEICGRWFTQKGNLLRHIKL,0.95
20,LHCPICGFDCTQKGNLLRHIKL,0.508
21,FSCNQCGHKFTQKGNLLRHIKL,0.0702
22,FVCEVCGAPFTQKGNLLRHIKL,-1.1
23,LVCPICGFKCTQKGNLLRHIKL,0.146
24,FNCNICGAPFTQKGNLLRHIKL,0.244
25,FNCEICGHEFTQKGNLLRHIKL,-1.39

row,Sequence,log2 fold change of degron read counts
1,LLCNQCGFVCTQKGNLLRHIKL,1.11
2,FKCEICGAWFTQKGNLLRHIKL,-0.746
3,FFCEICGHHFTQKGNLLRHIKL,-1.73
4,FQCNICGASFTQKGNLLRHIKL,-0.292
5,FRCDICGAYFTQKGNLLRHIKL,-0.232
6,FSCDQCGATFTQKGNLLRHIKL,-1.55
7,FQCDICGAHFTQKGNLLRHIKL,-1.43
8,FECNQCGRGFTQKGNLLRHIKL,-1.13
9,FDCPICGHPFTQKGNLLRHIKL,-1.66
10,LQCEICGFHCTQKGNLLRHIKL,-0.159
11,FCCPICGAWFTQKGNLLRHIKL,1.11
12,FICEICGHSFTQKGNLLRHIKL,-1.23
13,FFCNVCGADFTQKGNLLRHIKL,0.137
14,FACEICGAQFTQKGNLLRHIKL,-2.83
15,FGCEICGAIFTQKGNLLRHIKL,0.0517
16,FVCEICGAGFTQKGNLLRHIKL,-1.25
17,FDCEVCGAMFTQKGNLLRHIKL,-0.781
18,LRCPICGFQCTQKGNLLRHIKL,0.294
19,FVCNQCGAGFTQKGNLLRHIKL,-3.08
20,FYCPICGHHFTQKGNLLRHIKL,0.0166
21,FVCDICGALFTQKGNLLRHIKL,-1.22
22,FQCNQCGHNFTQKGNLLRHIKL,-0.569
23,FCCPICGHEFTQKGNLLRHIKL,-1.09
24,FICNICGAAFTQKGNLLRHIKL,-0.481
25,FDCEQCGAAFTQKGNLLRHIKL,-1.57
